Source: the supplement of paper PMC8728848
This is one part of the list.

Assays:
Experiment in all cases: glycan array binding signal (z-score within array); higher = stronger binding
Conditions in all cases: glycan notation: IUPAC condensed, linker removed
[1] = target: Fuc(a1-2)[Gal(a1-3)]Gal(b1-4)GlcNAc(b1-2)Man(a1-3)[Fuc(a1-2)[Gal(a1-3)]Gal(b1-4)GlcNAc(b1-2)Man(a1-6)]Man(b1-4)GlcNAc(b1-4)GlcNAc
Summary of the method: (§1)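 The binding signal is a Z-score computed within each array and averaged over linkers. Arrays of the same protein sequence at different concentrations or buffers were also averaged together. Data originate from 3228 arrays in the Consortium for Functional Glycomics database, kept only where the protein sequence was available.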

[2] = target: Fuc(a1-2)[Gal(a1-3)]Gal(b1-4)GlcNAc(b1-2)Man(a1-3)[Fuc(a1-2)[Gal(a1-3)]Gal(b1-4)GlcNAc(b1-2)Man(a1-6)]Man(b1-4)GlcNAc(b1-4)[Fuc(a1-6)]GlcNAc
Summary of the method: as §1

[3] = target: Fuc(a1-2)[Gal(a1-3)]Gal(b1-4)GlcNAc(b1-3)GalNAc
Summary of the method: as §1

[4] = target: Fuc(a1-2)[Gal(a1-3)]Gal(b1-4)GlcNAc(b1-3)[Fuc(a1-2)[Gal(a1-3)]Gal(b1-4)GlcNAc(b1-6)]GalNAc
Summary of the method: as §1

[5] = target: Fuc(a1-2)[Gal(a1-3)]Gal(b1-4)GlcNAc(b1-6)GalNAc
Summary of the method: as §1

[6] = target: Fuc(a1-2)[Gal(a1-3)]Gal(b1-4)[Fuc(a1-3)]Glc
Summary of the method: as §1

[7] = target: Fuc(a1-2)[Gal(a1-3)]Gal(b1-4)[Fuc(a1-3)]GlcNAc
Summary of the method: as §1

[8] = target: Fuc(a1-2)[Gal(a1-3)]Gal(b1-4)[Fuc(a1-3)]GlcNAc(b1-3)GalNAc
Summary of the method: as §1

[9] = target: Fuc(a1-2)[Gal(a1-4)]Gal(b1-4)GlcNAc
Summary of the method: as §1

[10] = target: Fuc(a1-2)[GalNAc(a1-3)]Gal
Summary of the method: as §1

[11] = target: Fuc(a1-2)[GalNAc(a1-3)]Gal(b1-3)GalNAc(a1-3)[Fuc(a1-2)]Gal(b1-4)GlcNAc
Summary of the method: as §1

[12] = target: Fuc(a1-2)[GalNAc(a1-3)]Gal(b1-3)GalNAc(b1-3)Gal(a1-4)Gal(b1-4)Glc
Summary of the method: as §1

[13] = target: Fuc(a1-2)[GalNAc(a1-3)]Gal(b1-3)GlcNAc
Summary of the method: as §1

[14] = target: Fuc(a1-2)[GalNAc(a1-3)]Gal(b1-3)GlcNAc(b1-2)Man(a1-3)[Fuc(a1-2)[GalNAc(a1-3)]Gal(b1-3)GlcNAc(b1-2)Man(a1-6)]Man(b1-4)GlcNAc(b1-4)GlcNAc
Summary of the method: as §1

[15] = target: Fuc(a1-2)[GalNAc(a1-3)]Gal(b1-3)GlcNAc(b1-2)Man(a1-3)[Fuc(a1-2)[GalNAc(a1-3)]Gal(b1-3)GlcNAc(b1-2)Man(a1-6)]Man(b1-4)GlcNAc(b1-4)[Fuc(a1-6)]GlcNAc
Summary of the method: as §1

[16] = target: Fuc(a1-2)[GalNAc(a1-3)]Gal(b1-3)GlcNAc(b1-3)GalNAc
Summary of the method: as §1

[17] = target: Fuc(a1-2)[GalNAc(a1-3)]Gal(b1-3)GlcNAc(b1-6)GalNAc
Summary of the method: as §1

[18] = target: Fuc(a1-2)[GalNAc(a1-3)]Gal(b1-4)Glc
Summary of the method: as §1

[19] = target: Fuc(a1-2)[GalNAc(a1-3)]Gal(b1-4)GlcNAc
Summary of the method: as §1

[20] = target: Fuc(a1-2)[GalNAc(a1-3)]Gal(b1-4)GlcNAc(b1-2)Man
Summary of the method: as §1

[21] = target: Fuc(a1-2)[GalNAc(a1-3)]Gal(b1-4)GlcNAc(b1-2)Man(a1-3)[Fuc(a1-2)[GalNAc(a1-3)]Gal(b1-4)GlcNAc(b1-2)Man(a1-6)]Man(b1-4)GlcNAc(b1-4)GlcNAc
Summary of the method: as §1

[22] = target: Fuc(a1-2)[GalNAc(a1-3)]Gal(b1-4)GlcNAc(b1-2)Man(a1-3)[Fuc(a1-2)[GalNAc(a1-3)]Gal(b1-4)GlcNAc(b1-2)Man(a1-6)]Man(b1-4)GlcNAc(b1-4)[Fuc(a1-6)]GlcNAc
Summary of the method: as §1

[23] = target: Fuc(a1-2)[GalNAc(a1-3)]Gal(b1-4)GlcNAc(b1-3)Gal(b1-4)GlcNAc
Summary of the method: as §1

[24] = target: Fuc(a1-2)[GalNAc(a1-3)]Gal(b1-4)GlcNAc(b1-3)Gal(b1-4)GlcNAc(b1-3)Gal(b1-4)GlcNAc
Summary of the method: as §1

[25] = target: Fuc(a1-2)[GalNAc(a1-3)]Gal(b1-4)GlcNAc(b1-3)GalNAc
Summary of the method: as §1

[26] = target: Fuc(a1-2)[GalNAc(a1-3)]Gal(b1-4)GlcNAc(b1-3)[Fuc(a1-2)[GalNAc(a1-3)]Gal(b1-4)GlcNAc(b1-6)]GalNAc
Summary of the method: as §1

[27] = target: Fuc(a1-2)[GalNAc(a1-3)]Gal(b1-4)GlcNAc(b1-6)GalNAc
Summary of the method: as §1

[28] = target: Fuc(a1-2)[GalNAc(a1-3)]Gal(b1-4)[Fuc(a1-3)]GlcNAc
Summary of the method: as §1

[29] = target: Fuc(a1-2)[GalNAc(a1-3)]Gal(b1-4)[Fuc(a1-3)]GlcNAc(b1-3)GalNAc
Summary of the method: as §1

[30] = target: Fuc(a1-2)[GalNAc(a1-4)]Gal(b1-4)GlcNAc
Summary of the method: as §1

[31] = target: Fuc(a1-2)[GalNAc(b1-3)]Gal
Summary of the method: as §1

Fuc(a1-3)GlcNAc = target: Fuc(a1-3)GlcNAc
Summary of the method: as §1

[32] = target: Fuc(a1-3)[Gal(b1-4)]Glc6S
Summary of the method: as §1

[33] = target: Fuc(a1-3)[Gal(b1-4)]GlcNAc
Summary of the method: as §1

[34] = target: Fuc(a1-3)[Gal(b1-4)]GlcNAc(b1-2)Man
Summary of the method: as §1

[35] = target: Fuc(a1-3)[Gal(b1-4)]GlcNAc(b1-2)Man(a1-3)[Fuc(a1-3)[Gal(b1-4)]GlcNAc(b1-2)Man(a1-6)]Man(b1-4)GlcNAc(b1-4)GlcNAc
Summary of the method: as §1

[36] = target: Fuc(a1-3)[Gal(b1-4)]GlcNAc(b1-2)Man(a1-3)[Fuc(a1-3)[Gal(b1-4)]GlcNAc(b1-2)Man(a1-6)]Man(b1-4)GlcNAc(b1-4)[Fuc(a1-6)]GlcNAc
Summary of the method: as §1

[37] = target: Fuc(a1-3)[Gal(b1-4)]GlcNAc(b1-3)Gal(b1-3)[Fuc(a1-4)]GlcNAc
Summary of the method: as §1

[38] = target: Fuc(a1-3)[Gal(b1-4)]GlcNAc(b1-3)Gal(b1-4)[Fuc(a1-3)]GlcNAc
Summary of the method: as §1

[39] = target: Fuc(a1-3)[Gal(b1-4)]GlcNAc(b1-3)Gal(b1-4)[Fuc(a1-3)]GlcNAc(b1-3)Gal(b1-4)[Fuc(a1-3)]GlcNAc
Summary of the method: as §1

[40] = target: Fuc(a1-3)[Gal(b1-4)]GlcNAc(b1-3)GalNAc
Summary of the method: as §1

[41] = target: Fuc(a1-3)[Gal(b1-4)]GlcNAc(b1-6)GalNAc
Summary of the method: as §1

[42] = target: Fuc(a1-3)[Gal(b1-4)]GlcNAc(b1-6)[Gal(b1-3)GlcNAc(b1-3)]Gal(b1-4)Glc
Summary of the method: as §1

[43] = target: Fuc(a1-3)[Gal(b1-4)]GlcNAc6S
Summary of the method: as §1

[44] = target: Fuc(a1-3)[Gal3S(b1-4)]Glc
Summary of the method: as §1

B1: CFEM-CGl (Candida glabrata), Q6FRS0 (protein)
chain: VLATPPACLLACVAQVSKQSSQCHTLNQVGCFCENENTAIKNCLDSICPNGNSDAAYTAFKNSCGDVGKAVASV
- glycan array binding signal (z-score) [1]: -0.396
- glycan array binding signal (z-score) [2]: -0.191
- glycan array binding signal (z-score) [3]: -0.562
- glycan array binding signal (z-score) [4]: 0.176
- glycan array binding signal (z-score) [5]: -0.207
- glycan array binding signal (z-score) [6]: -0.097
- glycan array binding signal (z-score) [7]: 0.286
- glycan array binding signal (z-score) [8]: 0.07
- glycan array binding signal (z-score) [9]: 0.444
- glycan array binding signal (z-score) [10]: -0.505
- glycan array binding signal (z-score) [11]: -0.609
- glycan array binding signal (z-score) [12]: -0.428
- glycan array binding signal (z-score) [13]: -0.375
- glycan array binding signal (z-score) [14]: -0.014
- glycan array binding signal (z-score) [15]: -0.63
- glycan array binding signal (z-score) [16]: 1.38
- glycan array binding signal (z-score) [17]: -0.71
- glycan array binding signal (z-score) [18]: -0.39
- glycan array binding signal (z-score) [19]: -0.224
- glycan array binding signal (z-score) [20]: -0.418
- glycan array binding signal (z-score) [21]: -0.562
- glycan array binding signal (z-score) [22]: -0.183
- glycan array binding signal (z-score) [23]: -0.405
- glycan array binding signal (z-score) [24]: -0.435
- glycan array binding signal (z-score) [25]: -0.544
- glycan array binding signal (z-score) [26]: -0.394
- glycan array binding signal (z-score) [27]: 0.049
- glycan array binding signal (z-score) [28]: 0.362
- glycan array binding signal (z-score) [29]: 4.55
- glycan array binding signal (z-score) [30]: -0.366
- glycan array binding signal (z-score) [31]: -0.399
- glycan array binding signal (z-score) (Fuc(a1-3)GlcNAc): -0.338
- glycan array binding signal (z-score) [32]: 0.385
- glycan array binding signal (z-score) [33]: -0.26
- glycan array binding signal (z-score) [34]: 0.39
- glycan array binding signal (z-score) [35]: 0.641
- glycan array binding signal (z-score) [36]: -0.347
- glycan array binding signal (z-score) [37]: -0.484
- glycan array binding signal (z-score) [38]: -0.095
- glycan array binding signal (z-score) [39]: -0.405
- glycan array binding signal (z-score) [40]: 1.07
- glycan array binding signal (z-score) [41]: 1.66
- glycan array binding signal (z-score) [42]: -0.421
- glycan array binding signal (z-score) [43]: 0.162
- glycan array binding signal (z-score) [44]: -0.009
